Source: the supplement of paper PMC8728848
The list shows a part of the results.

Experiments:
Test in all cases: glycan array binding signal (z-score within array); higher = stronger binding
Settings in all cases: glycan notation: IUPAC condensed, linker removed
Fuc(a1-2)Gal = target: Fuc(a1-2)Gal
How it was run: (§1)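 From the Consortium for Functional Glycomics database, 3228 arrays were curated, keeping only those whose protein sequence was available. Binding is given as a within-array Z-score averaged across arrays sharing a protein sequence and across linkers. Negative Z-scores can be read as non-binding.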

Fuc(a1-2)Gal(b1-3)GalNAc = target: Fuc(a1-2)Gal(b1-3)GalNAc
How it was run: as §1

[1] = target: Fuc(a1-2)Gal(b1-3)GalNAc(b1-3)Gal
How it was run: as §1

[2] = target: Fuc(a1-2)Gal(b1-3)GalNAc(b1-3)Gal(a1-4)Gal(b1-4)Glc
How it was run: as §1

[3] = target: Fuc(a1-2)Gal(b1-3)GalNAc(b1-3)Gal(b1-4)Glc
How it was run: as §1

[4] = target: Fuc(a1-2)Gal(b1-3)GalNAc(b1-4)[Neu5Ac(a2-3)]Gal(b1-4)Glc
How it was run: as §1

[5] = target: Fuc(a1-2)Gal(b1-3)[Fuc(a1-4)]GlcNAc
How it was run: as §1

Fuc(a1-2)Gal(b1-4)Glc = target: Fuc(a1-2)Gal(b1-4)Glc
How it was run: as §1

Fuc(a1-2)Gal(b1-4)GlcNAc = target: Fuc(a1-2)Gal(b1-4)GlcNAc
How it was run: as §1

[6] = target: Fuc(a1-2)Gal(b1-4)GlcNAc(b1-3)Gal(b1-4)GlcNAc
How it was run: as §1

[7] = target: Fuc(a1-2)Gal(b1-4)GlcNAc(b1-3)Gal(b1-4)GlcNAc(b1-3)Gal(b1-4)GlcNAc
How it was run: as §1

[8] = target: Fuc(a1-2)Gal(b1-4)[Fuc(a1-3)]GalNAc(b1-3)Gal(b1-4)[Fuc(a1-3)]GlcNAc
How it was run: as §1

[9] = target: Fuc(a1-2)Gal(b1-4)[Fuc(a1-3)]GalNAc(b1-3)Gal(b1-4)[Fuc(a1-3)]GlcNAc(b1-3)Gal(b1-4)[Fuc(a1-3)]GalNAc
How it was run: as §1

[10] = target: Fuc(a1-2)Gal(b1-4)[Fuc(a1-3)]GlcNAc
How it was run: as §1

Fuc(a1-2)GlcNAc = target: Fuc(a1-2)GlcNAc
How it was run: as §1

Fuc(a1-2)[Gal(a1-3)]Gal = target: Fuc(a1-2)[Gal(a1-3)]Gal
How it was run: as §1

[11] = target: Fuc(a1-2)[Gal(a1-3)]Gal(b1-3)GlcNAc
How it was run: as §1

[12] = target: Fuc(a1-2)[Gal(a1-3)]Gal(b1-4)Glc
How it was run: as §1

[13] = target: Fuc(a1-2)[Gal(a1-3)]Gal(b1-4)GlcNAc
How it was run: as §1

[14] = target: Fuc(a1-2)[Gal(a1-3)]Gal(b1-4)[Fuc(a1-3)]GlcNAc
How it was run: as §1

[15] = target: Fuc(a1-2)[Gal(a1-4)]Gal(b1-4)GalNAc
How it was run: as §1

[16] = target: Fuc(a1-2)[GalNAc(a1-3)]Gal
How it was run: as §1

[17] = target: Fuc(a1-2)[GalNAc(a1-3)]Gal(b1-3)GlcNAc
How it was run: as §1

[18] = target: Fuc(a1-2)[GalNAc(a1-3)]Gal(b1-4)Glc
How it was run: as §1

[19] = target: Fuc(a1-2)[GalNAc(a1-3)]Gal(b1-4)GlcNAc
How it was run: as §1

[20] = target: Fuc(a1-2)[GalNAc(a1-3)]Gal(b1-4)[Fuc(a1-3)]GlcNAc
How it was run: as §1

[21] = target: Fuc(a1-2)[GalNAc(a1-4)]Gal(b1-4)GlcNAc
How it was run: as §1

Fuc(a1-3)GlcNAc = target: Fuc(a1-3)GlcNAc
How it was run: as §1

[22] = target: Fuc(a1-3)[Gal(b1-4)]GlcNAc
How it was run: as §1

[23] = target: Fuc(a1-3)[Gal(b1-4)]GlcNAc(b1-4)Gal(b1-4)[Fuc(a1-3)]GlcNAc
How it was run: as §1

[24] = target: Fuc(a1-3)[Gal(b1-4)]GlcNAc(b1-4)Gal(b1-4)[Fuc(a1-3)]GlcNAc(b1-4)Gal(b1-4)[Fuc(a1-3)]GlcNAc
How it was run: as §1

[25] = target: Fuc(a1-3)[Gal3S(b1-4)]GlcNAc
How it was run: as §1

[26] = target: Fuc(a1-3)[GalNAc(b1-4)]Gal(b1-4)GlcNAc
How it was run: as §1

Fuc(a1-4)GlcNAc = target: Fuc(a1-4)GlcNAc
How it was run: as §1

Fuc(b1-3)GlcNAc = target: Fuc(b1-3)GlcNAc
How it was run: as §1

Gal(a1-2)Gal = target: Gal(a1-2)Gal
How it was run: as §1

Gal(a1-3)Gal = target: Gal(a1-3)Gal
How it was run: as §1

Gal(a1-3)Gal(b1-3)Glc = target: Gal(a1-3)Gal(b1-3)Glc
How it was run: as §1

Gal(a1-3)Gal(b1-3)GlcNAc = target: Gal(a1-3)Gal(b1-3)GlcNAc
How it was run: as §1

Gal(a1-3)Gal(b1-4)GlcNAc = target: Gal(a1-3)Gal(b1-4)GlcNAc
How it was run: as §1

[27] = target: Gal(a1-3)Gal(b1-4)[Fuc(a1-3)]GalNAc
How it was run: as §1

Gal(a1-3)GlcNAc = target: Gal(a1-3)GlcNAc
How it was run: as §1

[28] = target: Gal(a1-3)[Gal(a1-4)]Gal(b1-4)GlcNAc
How it was run: as §1

Gal(a1-4)Gal(b1-4)Gal = target: Gal(a1-4)Gal(b1-4)Gal
How it was run: as §1

Gal(a1-4)Gal(b1-4)GalNAc = target: Gal(a1-4)Gal(b1-4)GalNAc
How it was run: as §1

B1: CVNH3T (Magnaporthe grisea) (protein)
chain: GSHIGPYGNYAGNFSGSSRDICLDGARLRAECRRGDGGYSTSVIDLNRYLSNDNGHFRWVSGGGGGGGTATVTVQQGDTLRDIGRRFDCDFHEIARRNNIQNEDLIYPGQVLQVPTKGGSGGGAGNFWDSARDVRLVDGGKVLEAELRYSGGWNRSRIYLDEHIGNRNGELIHC
- glycan array binding signal (z-score) (Fuc(a1-2)Gal): -0.223
- glycan array binding signal (z-score) (Fuc(a1-2)Gal(b1-3)GalNAc): -0.142
- glycan array binding signal (z-score) [1]: -0.216
- glycan array binding signal (z-score) [2]: 4.94
- glycan array binding signal (z-score) [3]: -0.17
- glycan array binding signal (z-score) [4]: -0.228
- glycan array binding signal (z-score) [5]: -0.225
- glycan array binding signal (z-score) (Fuc(a1-2)Gal(b1-4)Glc): -0.233
- glycan array binding signal (z-score) (Fuc(a1-2)Gal(b1-4)GlcNAc): -0.234
- glycan array binding signal (z-score) [6]: -0.228
- glycan array binding signal (z-score) [7]: -0.212
- glycan array binding signal (z-score) [8]: -0.19
- glycan array binding signal (z-score) [9]: -0.218
- glycan array binding signal (z-score) [10]: -0.196
- glycan array binding signal (z-score) (Fuc(a1-2)GlcNAc): -0.216
- glycan array binding signal (z-score) (Fuc(a1-2)[Gal(a1-3)]Gal): -0.217
- glycan array binding signal (z-score) [11]: 0.849
- glycan array binding signal (z-score) [12]: -0.215
- glycan array binding signal (z-score) [13]: -0.23
- glycan array binding signal (z-score) [14]: -0.226
- glycan array binding signal (z-score) [15]: -0.199
- glycan array binding signal (z-score) [16]: -0.138
- glycan array binding signal (z-score) [17]: -0.07
- glycan array binding signal (z-score) [18]: 0.015
- glycan array binding signal (z-score) [19]: -0.053
- glycan array binding signal (z-score) [20]: -0.058
- glycan array binding signal (z-score) [21]: -0.232
- glycan array binding signal (z-score) (Fuc(a1-3)GlcNAc): -0.235
- glycan array binding signal (z-score) [22]: -0.108
- glycan array binding signal (z-score) [23]: -0.213
- glycan array binding signal (z-score) [24]: -0.235
- glycan array binding signal (z-score) [25]: -0.228
- glycan array binding signal (z-score) [26]: -0.226
- glycan array binding signal (z-score) (Fuc(a1-4)GlcNAc): -0.226
- glycan array binding signal (z-score) (Fuc(b1-3)GlcNAc): -0.223
- glycan array binding signal (z-score) (Gal(a1-2)Gal): -0.22
- glycan array binding signal (z-score) (Gal(a1-3)Gal): -0.222
- glycan array binding signal (z-score) (Gal(a1-3)Gal(b1-3)Glc): -0.221
- glycan array binding signal (z-score) (Gal(a1-3)Gal(b1-3)GlcNAc): -0.224
- glycan array binding signal (z-score) (Gal(a1-3)Gal(b1-4)GlcNAc): -0.193
- glycan array binding signal (z-score) [27]: -0.217
- glycan array binding signal (z-score) (Gal(a1-3)GlcNAc): -0.222
- glycan array binding signal (z-score) [28]: -0.206
- glycan array binding signal (z-score) (Gal(a1-4)Gal(b1-4)Gal): 2.07
- glycan array binding signal (z-score) (Gal(a1-4)Gal(b1-4)GalNAc): 5.47
